# Assay results published in the RNAGym collection of RNA variant scans (doi:10.1093/nar/gkz1192).
# The source gives no read counts; variants with many changes may rest on few reads.
# B1: CPEB3 Ribozyme (parent)
# chain: UAACAGGGGGCCACAGCAGAAGCGUUCACGUCGCAGCCCCUGUCAGAUUCUGGUGAAUCUGCGAAUUCUGCUGUAUAUCUC
# Variants of: B1
# Test: self-cleavage, relative activity (ratio to wild type); higher = more cleavage; in vitro, sequencing
# How it was run: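 Relative activity compares each variant's cleaved/total read fraction with that of the unmutated ribozyme. To get these fractions, barcoded CPEB3 ribozyme libraries from rounds of error-prone PCR were transcribed with T7 RNA polymerase for 5 hours at 37°C and then given 15 min of DNase I treatment before EDTA was added. The RNAs were reverse transcribed with template switching and sequenced on Illumina, and DNA sequencing linked barcodes to variants. A minimum of 5 reads applied, and three batches were averaged.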
row,Variant,self-cleavage
1,UUACAGGGGGCCACAGCAGAAGCGUUCACGUCGCAGCCCCUGUCUGAUCCUGGUGAAUCUGCGGAUUCUGCUGUAUAUCUC [A2U A45U U49C A64G],0.28
2,UUACAGGGGGCCACAGCAGAAGCGUUCACGUCGCAGCCCCUGUCUGAUUCUGGUGAAUCAGCGAAUUCUGCUGUAUAUCUC [A2U A45U U60A],1.13
3,UUACAGGGGGCCACAGCAGAAGCGUUCACGUCGCAGCCCCUGUCAGGUUCUGGUGAAUCUGCGAAUACUGCUGUAUAUCUC [A2U A47G U67A],0.22
4,UUACAGGGGGGCACAGAAGAAGCGUUCACGUCGCAGCCCCUGUCAGAUUCUGGUGAAUCUGGGAAUUCUGCUGUAUAUCUC [A2U C11G C17A C62G],0.2
5,UUACAGGGGGUCACAGCAGAAGCGUUCACGUCGCAGCCCCUGUCUGAUUCUGGUGAGUCUGCGAAUUCUGCUGUAGAUCUC [A2U C11U A45U A57G U76G],0.22
6,UUACAGGGGGCUACAGCAGAAGCGUUCACGUCGCAGCCCCUGUCAGUUUCUGGUGAACCCGCGUAUUCUGCUGUAUAUCUC [A2U C12U A47U U58C U60C A64U],0.08
7,UUACAGGGGGCUACAGCAGAAGCGUACACGUCGCAGCCCCUGUCAGAUUCUGGUGAAUCUGCGAAUUCUGCUGUAUAUCUC [A2U C12U U26A],1.2
8,UUACAGGGGGCUACAGCAGAAGCGUUCACGUCGCAGCCCCUGUCAGAUUCUGGUGAACCUGCGUACUCUGCUGUGUAUCUC [A2U C12U U58C A64U U66C A75G],0.14
9,UUACAGGGGGCCAUGGCAGAAGCGCUCACGUCGCAGCCCCUGUCGGAUUCUGGUGAAUCUGCGGAUUCUGCUGUAUAUCUC [A2U C14U A15G U25C A45G A64G],0.09
10,UUACAGGGGGCCACAGCAGAAGCGUUAACGUCGCGGCCCCUGUCGGAUUCUGGUGAAUCUGCGAAUUCUGCUGUAUAUCUC [A2U C27A A35G A45G],0.18
11,UUACAGGGGGCCACAGCAGAAGCGUUAACGUCGCAGCCCCCGUCAGUUUCUGGUGAAUCUGCGAUUUCUGCUGUAUAUCUC [A2U C27A U41C A47U A65U],0.18
12,UUACAGAGGGCCACAGCAGAAGCGUUAACGUCGCAGCCCCUGUCAGAUCCUGGUGAAUCUGCGAAUUCUGCUGUAUAUCUC [A2U G7A C27A U49C],0.18
13,UUACAGUGGGCCACAGUAGAAGCGUUCACGUCGCAGCCCCUGUCAGAUUCUGGUGAAUCUGCGAAUUCUGCCGUAUAUCUC [A2U G7U C17U U72C],0.28
14,UUACAGGAGGCCACAGCAGAGGCGUUCACGUCGCAGCCCCUGUCAGAUUCUGGUGAAUCUGCGAAUUCUGCUGUAUAUCCC [A2U G8A A21G U80C],0.43
15,UUACAGGCGGCCACAGCAGAAGCGUUCACGUCGCAUCCCCUGUCAGAUUCUGGUGAAUCCGCGAAUUCUGCUGUAUAUCUC [A2U G8C G36U U60C],0.06
16,UUACAGGUGGCCUCAGCAGAAGCGUUCACGUCGCAGCCCCUAUCAGAUUCUGGUGAAUCUGCGAAUUCUGCUGUAUAUCUC [A2U G8U A13U G42A],0.07
17,UUACAGGUGGCCACAGCAGAAGCGUUCACGUCGCAGCCCCUGUCAGAUCCUGGUGAGUCUGCGAAUUCUGCUGUAUACCUC [A2U G8U U49C A57G U78C],0.14

row,Variant,self-cleavage
1,UUACAGGGAGCCACAGCAGAAGCGUUCACGUCGCAGCCCCAGUCAGAUUCAGGUGUAUUUGCGAAUUCAGCUGUAUAUCUC [A2U G9A U41A U51A A56U C59U U69A],0.04
2,UUACAGGGGACCACCGCAGAAGCGUUCACGUCGCAGCCCCUGUCGGAUUCUGGUGAAUCUGCGAAUUCUGCUGUAUAUCUC [A2U G10A A15C A45G],0.26
3,UUACAGGGGACCACAGCAGAUGCGUUCUCGUCGCAGCCCCAGUCAGACUCUGGGGAAUCUGCGAAUUCUGCUGUAUAUCUC [A2U G10A A21U A28U U41A U48C U54G],0.3
4,UUACAGGGGGCCACAUCAGAAGCGUUCACGUCGCAGCCCCCGUCAGAUUCUGGUGAAUCUGCAAAUUCUGCUGUAUAUCUC [A2U G16U U41C G63A],0.54
5,UUACAGGGGGCCACAGCAGAAACGUUCACGUCGCAGCCUCUGUCAGAUUCUGGUGAGUCUGCGAAUUCAGCUGUAUAUCUU [A2U G22A C39U A57G U69A C81U],0.11
6,UUACAGGGGGCCACAGCAGAAGCGUUCACAUCGCAGCCCCUGUCAGAUUCUGGUGUAUCUGCGAAUUCUGCUGUAUAUCUC [A2U G30A A56U],0.27
7,UUACAGGGGGCCACAGCAGAAGCGUUCACGUCGCACCCCCUGUCAGAUUCUGGUGAAUCUGCGAAUUCUGCUGUUUAUCUC [A2U G36C A75U],0.06
8,UUACAGGGGGCCACAGCAGAAGCGUUCACGUCGCAGCCCCUGUCAGAUUCUAGUGAAUCUGCGAAUUCUGCUGUAUGUCUC [A2U G52A A77G],1.15
9,UUACAGGGGGCCACAGCAGAAGCGUUCACGUCGCAGCCCCUGUCAGAUUCUUGUGGAUCUGCGAAUUCUGCUGUAUAUCUC [A2U G52U A56G],0.37
10,UUACAGGGGGCCACAGCAGAAGCGAUCACAUCGCAGCCCCUGUCAGAUCCUGGUGGAUCUGCGAAUUCUGCUGUAUAUCUC [A2U U25A G30A U49C A56G],0.28
11,UUACAGGGGGCCACAGCAGAAGCGAUCACGUCGCAGCCCCUGUCAGAUUCUGGUGAAUCCGCGAAUACUGCUGUAUAUCUC [A2U U25A U60C U67A],0.06
12,UUACAGGGGGCCACAGCAGAAGCGCUCACGUCGCAGCCCCUGUCAGUUUCCGGUGAAUCUGCGAAUUCUGCUGUAUAUCCC [A2U U25C A47U U51C U80C],0.11
13,UUACAGGGGGCCACAGCAGAAGCGCCCACGUCGCAGCCCCUGUCAGACUCUGGUGAAUCUGAGAAUUCUGCUGUAUAUCAC [A2U U25C U26C U48C C62A U80A],0.23
14,UUACAGGGGGCCACAGCAGAAGCGCUCACGUCGCAGCCCCUGUCAGAUUCUGGCGAAUCUGCGAAUUCCGCUGUAUACCUC [A2U U25C U54C U69C U78C],0.21
15,UUACAGGGGGCCACAGCAGAAGCGUACACGUCGCAGCCCCUGUCAGAUUCUGGCGAAUCAGCGAAUUCUGCUGUAUAUCUC [A2U U26A U54C U60A],0.59
16,UUACAGGGGGCCACAGCAGAAGCGUCCACGUCGCAGCCCCUGUCAGAUUCUGGCGAAUCAGCGAAUUCAGCUGUAUAUCUC [A2U U26C U54C U60A U69A],0.13
17,UUACAGGGGGCCACAGCAGAAGCGUUCACGACGCAGCCCCUGUCAGAUUCAGGUGAAUCUGCGAAUUCCGCUGUAUAUCUC [A2U U31A U51A U69C],0.14
